Assay results: PubChem BioAssay (NCI)
Several values for one entry are separate records, joined by “and”; a condition that tells them apart may be missing. Equal entries are not always repeated.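 Growth conditions: 96-well plates. Treatment: test compound, 48 hours, 5 concentrations. Analysis: linear interpolation between bracketing concentrations; unreached endpoints set to highest concentration. GI50: concentration for 50% inhibition of growth. TGI denotes the concentration required for complete inhibition of growth.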

Test system: NCI-H322M lung
Test: NCI anticancer screen, dose series, 48 h

Row | SMILES | GI50 | TGI
1 | COc1cc2c3c(n(CCCCOC(=O)C(F)(F)F)c(=O)c2cc1OC)-c1cc2c(cc1C3=O)OCO2 | > 100 µM | > 100 µM
2 | C/C=C(C)/C=C/CC(C)CCC=C(C)C (configuration not stated) |  | > 100 µM
3 | COc1ccc(NC(=O)CC(=O)N2N=C(N3CCCCC3)CC2c2ccccc2)cc1 (configuration not stated) |  | > 100 µM
4 | COc1cc(N=CN(C)C)c2ncccc2c1 |  | > 100 µM
5 | COC(OC)C1OC(CO)C(n2cc(C)c(=O)[nH]c2=O)C1O (configuration not stated) |  | > 100 µM
6 | Cn1nccc1Nc1nccc(-c2cc3c(s2)C(C)(C)N(CCN2CCOCC2)C3=O)n1 | 3.96 µM | > 100 µM
7 | CC(=O)[CH-]C(=O)c1ccccc1.CC(=O)[CH-]C(=O)c1ccccc1.CC[O-].CC[O-].[Zr+4] | 53.3 µM | > 100 µM
8 | CCCCCCCC1(N=[N+]=[N-])C(=O)c2ccccc2N(C)C1=O (configuration not stated) |  | > 100 µM
9 | COC(=O)C1=C(O)c2cc(OC)c(OC)c(OC)c2[C@H](c2cc(OC)c(OC)c(OC)c2)C1C(=O)OC (some centres not stated) |  | > 100 µM
10 | CC(C)=CCC[C@H](C)[C@@H]1CC[C@]2(C)C3CC[C@]4(OC4(C)C)C(CCCO)[C@]3(C)CC[C@@]12C (some centres not stated) | 17.3 µM | 36.9 µM
11 | O=S(=O)(/C=C/c1ccc(Cl)cc1Cl)Cc1ccccc1CS(=O)(=O)/C=C/c1ccc(Cl)cc1Cl |  | > 100 µM
12 | CCOc1ccc(N=NC2C(=O)N(C(=O)CC(=O)Nc3ccccc3OC)N=C2C)cc1 (configuration not stated) |  | > 100 µM
13 | Cc1ccc(NC(=O)CCC(CC(=O)C(C)(C)C)=NNC(=O)C(=O)NN)cc1C |  | > 100 µM
14 | OCC(CN1CCCCC1)(CN1CCCCC1)CN1CCCCC1 |  | > 100 µM
15 | Cc1ccc(/C(O)=C/c2nc3ccccc3oc2=O)cc1 |  | > 100 µM
16 | O=c1cc(-c2ccccc2)[nH]c2cc(F)c(F)cc12 |  | > 100 µM
17 | O=c1c2cccc(Cl)c2sc2c(NCCCNCCO)nc3ccccc3c12 | 3.09 µM | 13.8 µM
18 | Cc1nn(-c2nc3ccccc3s2)c(C)c1Oc1ccccc1O | 13.2 µM | 26.7 µM
19 | CC1CC2(C)ON=C(c3ccccc3)N2c2ccccc2S1 (configuration not stated) | 67.3 µM | 
20 | O=C(O)/C=C/n1c2ccccc2c(=O)c2ccccc21 |  | > 100 µM
21 | COc1cc2nc3sc(C(=O)Nc4ccc(C(=O)OC(C)C)cc4)c(C(=O)Nc4ccc(Cl)cc4C)n3c(=O)c2cc1OC | 1.04 µM | 23 µM
22 | COC(=O)/C=C/c1ccc2c(c1)CCC2 |  | > 100 µM
23 | O=C1CC(c2ccc(N3CCOCC3)cc2)(c2ccsc2)NC(=O)C1Sc1ccccc1Cl (configuration not stated) | 68.7 µM | > 100 µM
24 | CCOC(=O)c1cc2c(ccc3cc(C(=O)OCC)[nH]c32)[nH]1 |  | > 100 µM

Row | SMILES | GI50 | TGI
25 | Nc1ccccc1CCCC(=O)O |  | > 100 µM
26 | COC(=O)CCCN(C)c1n[nH]c(N)n1 |  | > 100 µM
27 | C/C=C(\C)C(=O)N[C@H]1CC[C@]2(C)C3CC[C@@]4(C)C(CC[C@@H]4C(C)N(C)C)C3CCC2[C@H]1OC(C)=O (some centres not stated) | 1.81 µM | 4.03 µM
28 | O=c1cccccc1NCCOCCNc1cccccc1=O |  | > 100 µM
29 | CC(=O)Oc1ccc2c(c1)Oc1cc(C(C)=O)ccc1C21OC(=O)c2ccccc21 (configuration not stated) |  | > 100 µM
30 | CC1=NN(c2ccccc2)C(=O)C1=C1SCCS1 |  | > 100 µM
31 | CC1=NN(c2nc(N)nc(CCl)n2)CC1 |  | > 100 µM
32 | COc1cc(-c2nc(Nc3nc4ccccc4[nH]3)nc(N)c2C#N)cc(OC)c1OC | 32.8 µM | > 100 µM
33 | COc1cccc(-c2cc(=O)c3cc(OC)c(OC)cc3[nH]2)c1 |  | 91.5 µM
34 | COc1cc(C2=NN(C)C(c3ccc([N+](=O)[O-])o3)C2)cc(OC)c1OC (configuration not stated) |  | > 100 µM
35 | O=S(=O)(O)O.[NH-]C1CCCCC1[NH-].[Pt+2] (configuration not stated) | > 100 µM | > 100 µM
36 | Cc1nc(C)c(C(=O)NNC(=O)Cc2ccccc2)cc1C(=O)NNC(=O)Cc1ccccc1 |  | > 100 µM
37 | CC1(c2ccc(F)cc2)CC(c2ccc(F)cc2)=C(C#N)C(=C(C#N)C#N)N1 (configuration not stated) |  | 28 µM
38 | Cc1ccc2c(c1)C(=O)/C(=C\c1ccccc1)CCS2(=O)=O |  | 37.8 µM
39 | O=C(Nc1cc(C(=O)Nc2cccc(S(=O)(=O)O)c2)cc(C(=O)Nc2cccc(S(=O)(=O)O)c2)c1)c1cccc(C(=O)Nc2cc(C(=O)Nc3cccc(S(=O)(=O)O)c3)cc(C(=O)Nc3cccc(S(=O)(=O)O)c3)c2)c1 |  | > 100 µM
40 | CC(C)(C)OC(=O)N(O)[C@@H]1C=C[C@H](n2cnc3c(N)ncnc32)C1 |  | > 100 µM
41 | Cn1cncc1[C@@](N)(c1ccc(Cl)cc1)c1ccc2c(c1)c(-c1cccc(Cl)c1)cc(=O)n2C | 8.4 µM | 22.2 µM
42 | O=C1CCCCC/C1=C\c1ccc(F)cc1 |  | > 100 µM
43 | COc1c(Cl)c2c(c(OC)c1OC)-c1ccc(OC)c(=O)c(Cl)c1C(NC(C)=O)CC2 (configuration not stated) |  | 42.8 µM
44 | N#Cc1c(-c2ccc(Cl)cc2)cc(-c2ccc(Nc3ccnc4cc(C(F)(F)F)ccc34)cc2)[nH]c1=O |  | > 100 µM
45 | C=CCc1cc(-c2cc(CC=C)c(O)c(CN(CCCl)CCCl)c2)cc(CN(CCCl)CCCl)c1O |  | 47.6 µM
46 | CN1C(=O)c2ccccc2NC(=O)c2cnn(C)c21 |  | > 100 µM
47 | C=C(C)C1CC=C(C)[C@](O)(C2(O)C[C@H](C(=C)C)CC=C2C)C1 (some centres not stated) |  | > 100 µM
48 | COc1cccc(C2c3cc4c(cc3OC(C)(O)C2C)OCO4)c1O (configuration not stated) |  | > 95.4 µM

Row | SMILES | GI50 | TGI
49 | C1=Cc2ccccc2Nc2ccccc21 | > 100 µM | > 100 µM
50 | O=C(Nc1ccccc1O)c1cccc(NC2=C(Cl)C(=O)N(Cc3ccccc3)C2=O)c1 | 15.6 µM | 29 µM
51 | Nc1nc(N)c(N=O)c(Nc2ccc(O)cc2)n1 |  | > 100 µM
52 | CCN(CC)CC(=O)Nc1c(C(N)=O)nnn1Cc1cc(Cl)c(C(=O)c2ccc(Cl)cc2)c(Cl)c1 |  | > 100 µM
53 | C[n+]1c2ccccc2c(CNc2ccc(S(=O)(=O)N=C(N)N)cc2)c2ccccc21 |  | > 100 µM
54 | CN(NC(=O)c1ccco1)C1=NCCN1 |  | > 100 µM
55 | CC(C)=CCC[C@@H](C)C1=C(O)C(Nc2ccccc2Br)=C(C)C(=O)C1=O |  | 66.3 µM
56 | O=[N+]([O-])C(Cl)C(Cl)C(Cl)=C(Cl)Cl (configuration not stated) |  | > 100 µM
57 | CC1(C)COC(C23C4C5C2C2C3C4C52I)=N1 (configuration not stated) |  | > 100 µM
58 | CCOC(=O)/C(O)=C(/c1n[nH]c(=O)c2ccccc12)[N+](=O)[O-] |  | > 100 µM
59 | COC(=O)[C@@H]1CN(C(=O)c2ccccc2)C(=O)N1 |  | > 100 µM
60 | Cn1cc(C2=C(c3cccc4ccccc34)C(=O)NC2=O)c2ccccc21 | 10.9 µM | > 25 µM
61 | Cc1cc(O)cc2oc(=O)c3c(O)cc(O)cc3c12 |  | 58.9 µM
62 | COc1c(C)c(C/C=C(\C)CCCCO[Si](C(C)C)(C(C)C)C(C)C)c(OC)c2ccccc12 |  | > 100 µM
63 | COC(=O)c1ccc(OCc2ccc3nc(OC)c(OC)nc3c2)cc1 |  | > 100 µM
64 | COc1ccc(N2C(=O)C3c4[nH]c5ccc(OC)cc5c4C4CCC(C(C)(C)C)CC4C3C2=O)cc1 (configuration not stated) |  | > 100 µM
65 | C/C=C/c1c(O)c(=O)c2c(OC)cc(OC)c3c4c(OC)cc(OC)c5c(=O)c(O)c(/C=C/C)c(c1c23)c54 |  | 97.1 µM
66 | CS(=O)(=O)NNS(=O)(=O)c1cccc([N+](=O)[O-])c1 |  | > 100 µM
67 | N#Cc1ccc(Oc2nc3ccccc3nc2-c2ccccc2)cc1 |  | > 100 µM
68 | O=C1/C(=C/c2cccnc2)C(n2cccc2)c2c(Br)sc(Br)c21 (configuration not stated) |  | 4.03 µM
69 | CC(C)=CC1C(COC(=O)c2cc3c(cc2Cl)OCO3)C1(C)C (configuration not stated) |  | > 100 µM
70 | COc1cc(N(CCC#N)CCC#N)ccc1/C=C1\SC(=S)NC1=O |  | > 100 µM
71 | CC(=O)N1N=C2/C(=C/c3ccccc3)CC(C)CC2C1c1ccccc1 (configuration not stated) | 18.9 µM | 39.8 µM
72 | C/C(CC(=O)Nc1ccc(Cl)c(Cl)c1)=N/NC(=O)C[n+]1ccccc1 |  | > 100 µM

Row | SMILES | GI50 | TGI
73 | O=C1NN(c2ccc(C(=O)O)cc2)C(=O)/C1=C\c1ccc([N+](=O)[O-])o1 | > 100 µM | > 100 µM
74 | CCCN(CCC)C(=O)C1=Cc2ccc(-c3ccc(C(=O)N4CCCC4)cc3)cc2N=C(N)C1 | 16.5 µM | 49.9 µM
75 | O=[N+]([O-])c1ccc(Br)c([N+](=O)[O-])c1 | 3.25 µM | 8.41 µM
76 | COc1ccc(N(CC(=O)NCCC[Te]c2ccccc2)C(=O)c2ccccc2)cc1 | 2.87 µM | 8.18 µM
77 | Cc1ccc(CC(=O)Nc2ccc(NC(=O)/C=C/NC(=O)/C=C/c3ccc(-c4ccccc4)cc3)cc2C(=O)c2ccccc2)cc1 |  | 17.7 µM
78 | COC(=O)CCC(=O)CC(=O)C1=NS(=O)(=O)c2nc(S(N)(=O)=O)c(Cl)cc2N1 |  | > 100 µM
79 | COC(=O)Nc1nc2ccc(Oc3ccc(NC(=O)Nc4cccc(C(=O)O)c4)cc3)cc2[nH]1 | > 19.3 µM | > 25 µM
80 | CCC(C)(C)C(=O)O[C@H]1C[C@@H](C)C=C2C=C[C@H](C)[C@H](CC[C@@H]3C[C@@H](O)CC(=O)O3)[C@H]21 | 1.3 µM | 18.1 µM and > 30 µM
81 | CC(=O)OC1CCN(C(=O)c2ccccc2)CC1CC1(c2cc3ccccc3[nH]2)OCCO1 (configuration not stated) |  | > 100 µM
82 | CC1=C(C(=O)Nc2ccc(F)c(Cl)c2)C(c2ccccc2Cl)NC(=S)N1 (configuration not stated) | > 50 µM | > 50 µM
83 | Cn1c2ccccc2c2c(-c3ccccc3)[n+]3ccccc3nc21 |  | > 100 µM
84 | C=C1C(=O)O[C@@H]2C[C@@]3(C)CCC[C@H](C)C3=C[C@H]12 |  | 29.5 µM
85 | C=CCCCC1CCCNC1=O (configuration not stated) |  | > 100 µM
86 | CC1=NN(c2cccc(Cl)c2)C2(SCC(=O)N2c2nc3ccccc3s2)/C1=C\c1ccc(Cl)cc1 (configuration not stated) |  | > 100 µM
87 | Cc1cc(NS(=O)(=O)c2ccc(N=Nc3cc(N=Nc4ccc(S(=O)(=O)Nc5cc(C)nc(C)n5)cc4)c4c(NC(=O)C(Cl)Cl)cccc4c3OC(=O)C(Cl)Cl)cc2)nc(C)n1 (tested in a mixture with another compound) |  | 36.7 µM
88 | Cn1c2ccccc2c(=S)c2ccccc21 |  | > 100 µM
89 | [O-]c1c2c(nn1-c1ccccc1)c1ccccc1c[n+]2Cc1ccccc1 |  | > 100 µM
90 | COC(=O)NC1C(C)OC(OC2C/C=C(/C)C3C=CC4C(OC5CC(OC6CC(O)C(OC7CC(O)C(OC)C(C)O7)C(C)O6)C(O)C(C)O5)C(C)CC(C)C4C3(C)/C(O)=C3\C(=O)OC4(CC(C)C(CO)=CC4/C=C\2C)C3=O)CC1(C)[N+](=O)[O-] (configuration not stated) | 16.6 µM | 50 µM and 19.8 µM
91 | COc1cc(O)cc(/C=C/c2ccc(O)cc2)c1 |  | 98.2 µM
92 | CC1=CC(=NC(=O)CBr)C=C/C1=N\S(=O)(=O)c1ccccc1 | 14.7 µM | 28.3 µM
93 | CCOc1cccc(/C=N/NC(=O)c2ccc(Nc3ccnc(C(F)(F)F)c3)cc2)c1O | 1.09 µM | > 100 µM
94 | CC(=N/NC(=S)N1CCCCC1)/C(=N\NC(=S)N1CCCCC1)c1ccccc1 |  | 3.63 µM
95 | Cc1ccc(S(=O)(=O)N2CC3OC(C)(C)OC3C2CO)cc1 (configuration not stated) |  | > 100 µM
96 | Cc1ccccc1C1CC(=O)CC(c2ccccc2C)C12C(=O)NC(=O)NC2=O (configuration not stated) |  | > 100 µM
